In a collection of fitness landscapes (doi:10.1016/j.celrep.2020.107928):
In all, about 81,000 sequences were measured (“one-hybrid fitness for binding NBS DNA”: median about -0.1, highest 2% from about 0.36 on). The list shows a part of the results.

B1: Caulobacter ParB omega fusion; a variant is named by its letters at X, in order, B8GW30 (parent)
chain: MESVVVGEPGMSEGRRGLGRGLSALLGEVDAAPAQAPGEQLGGSREAPIEILQRNPDQPRRTFREEDLEDLSNSIREKGVLQPILVRPSPDTAGEYQIVAGERAWRAAQRAGLKTVPIMVRELDDLAVLEIGIIENVQRADLNVLEEALSYKVLMEKFERTQENIAQTIGKSXSHVANXMRLLXLPDEVQSYLVSGELTAXHARAIAAAADPVALAKQIIEGGLSVRETEALARKAPNLSAGKSKGGRPPRVKDTDTQALESDLSSVLGLDVSIDHRGSTGTLTITYATLEQLDDLCNRLTRGI

Variants of: B1
Assay: one-hybrid fitness for binding NBS DNA (the Noc-binding site; scaled: cognate 1, non-cognate 0); higher = stronger binding
Settings: with NBS DNA site
Method in brief: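 Caulobacter ParB libraries with four specificity codons randomised were screened by bacterial one-hybrid selection in the E. coli USO strain, using a HIS3 reporter whose site lies 19 bp from the promoter. Selection ran for 48 hours at 37°C on M9 lacking histidine, with 0.1 mM IPTG and 5 mM 3-AT. Plasmids were Illumina-sequenced before and after selection, three replicate libraries were pooled, and variants with under 10 reads were dropped. Fitness is the log change in each variant's read ratio to wild type, rescaled against the cognate and non-cognate sites.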

Variant | one-hybrid fitness for binding NBS DNA
SMWT | ≤ 0.2
RKLN | ≤ 0.2
HFAD | ≤ 0.2
GCAL | ≤ 0.2
MYAK | ≤ 0.2
RYRF | ≤ 0.2
GEKY | ≤ 0.2
RHAC | ≤ 0.2
MVIT | ≤ 0.2
SKMV | ≤ 0.2
AYPY | ≤ 0.2
WLII | ≤ 0.2
YMPL | ≤ 0.2
PHIF | 0.293
AVRY | ≤ 0.2
ICLC | ≤ 0.2
PQNS | ≤ 0.2
APLH | ≤ 0.2
DDTE | ≤ 0.2
PCDV | ≤ 0.2
TIEI | ≤ 0.2
VCSG | ≤ 0.2
TLTR | ≤ 0.2
VTGT | ≤ 0.2

Variant | one-hybrid fitness for binding NBS DNA
ETTY | ≤ 0.2
ETTM | ≤ 0.2
RMKP | ≤ 0.2
AVMA | ≤ 0.2
ESTG | ≤ 0.2
QTMS | 0.463
HVSP | ≤ 0.2
RRKR | 0.929
RNND | ≤ 0.2
EMSA | ≤ 0.2
NTDQ | ≤ 0.2
EGRS | ≤ 0.2
GKQF | ≤ 0.2
PQQD | ≤ 0.2
EGPR | ≤ 0.2
WESK | ≤ 0.2
RRSN | 0.356
KDGS | ≤ 0.2
FSNE | ≤ 0.2
GEWA | ≤ 0.2
ANAT | ≤ 0.2
VVKA | ≤ 0.2
HQQT | ≤ 0.2
HATI | ≤ 0.2

Variant | one-hybrid fitness for binding NBS DNA
GCKY | ≤ 0.2
MEHR | ≤ 0.2
VVHC | ≤ 0.2
CNYE | ≤ 0.2
NPSS | ≤ 0.2
TIAK | ≤ 0.2
YMAG | ≤ 0.2
NVSC | ≤ 0.2
TDYS | ≤ 0.2
VRSP | ≤ 0.2
YCTT | ≤ 0.2
RSQG | ≤ 0.2
CTPS | ≤ 0.2
QYTS | 0.396
RTPK | ≤ 0.2
SMEL | ≤ 0.2
HMSY | ≤ 0.2
QSWK | ≤ 0.2
RMET | ≤ 0.2
ACKC | ≤ 0.2
SWTV | ≤ 0.2
AGGD | ≤ 0.2
FTKI | ≤ 0.2
PKPC | ≤ 0.2

Variant | one-hybrid fitness for binding NBS DNA
QGQY | ≤ 0.2
QTYP | ≤ 0.2
RHSA | ≤ 0.2
TRER | ≤ 0.2
TRDW | ≤ 0.2
TGVT | ≤ 0.2
ADWR | ≤ 0.2
DIAR | ≤ 0.2
AYEV | ≤ 0.2
DQDG | ≤ 0.2
IVDK | ≤ 0.2
LYGS | ≤ 0.2
NQKT | ≤ 0.2
YQER | ≤ 0.2
EYSD | ≤ 0.2
RQIT | 0.221
LSNL | ≤ 0.2
QSHV | 0.201
QESK | ≤ 0.2
WVIY | ≤ 0.2
NYCL | ≤ 0.2
GHKC | ≤ 0.2
QHPV | ≤ 0.2
KLET | ≤ 0.2

Variant | one-hybrid fitness for binding NBS DNA
TTTD | ≤ 0.2
ELVS | ≤ 0.2
VMTS | ≤ 0.2
FILC | ≤ 0.2
TYES | ≤ 0.2
QEAA | ≤ 0.2
MSKC | ≤ 0.2
AMWS | ≤ 0.2
TLQV | ≤ 0.2
DRWR | ≤ 0.2
HAVA | ≤ 0.2
ELAT | ≤ 0.2
IARC | ≤ 0.2
QEIC | ≤ 0.2
WTTG | ≤ 0.2
RRIK | 0.216
DARG | ≤ 0.2
AMLS | ≤ 0.2
QNYT | ≤ 0.2
DPYT | ≤ 0.2
KQPR | ≤ 0.2
CKKT | ≤ 0.2
AKPF | ≤ 0.2
RYVW | ≤ 0.2

Variant | one-hybrid fitness for binding NBS DNA
KALL | ≤ 0.2
ADNS | ≤ 0.2
IISL | ≤ 0.2
SGRA | ≤ 0.2
IDEP | ≤ 0.2
HGTG | ≤ 0.2
PIAW | ≤ 0.2
LFVD | ≤ 0.2
MGRC | ≤ 0.2
CWLC | ≤ 0.2
WVEC | ≤ 0.2
DCRM | ≤ 0.2
ESCG | ≤ 0.2
MAER | ≤ 0.2
CHLC | ≤ 0.2
TLGP | ≤ 0.2
KMPE | ≤ 0.2
FANC | ≤ 0.2
ATSM | ≤ 0.2
RWGH | ≤ 0.2
LVKC | ≤ 0.2
VMPN | ≤ 0.2
LLSC | ≤ 0.2
VEIW | ≤ 0.2

Variant | one-hybrid fitness for binding NBS DNA
TQLA | ≤ 0.2
AKLY | ≤ 0.2
QFSW | ≤ 0.2
SRMN | ≤ 0.2
CGNG | ≤ 0.2
GLLL | ≤ 0.2
IRQT | 0.235
QALD | ≤ 0.2
AYFR | ≤ 0.2
QMQG | ≤ 0.2
EQLW | ≤ 0.2
PSSS | ≤ 0.2
QFKH | ≤ 0.2
IKIC | ≤ 0.2
ETLN | ≤ 0.2
SPGQ | ≤ 0.2
RGQC | ≤ 0.2
QTDQ | ≤ 0.2
QTHA | 0.441
IQGF | ≤ 0.2
IRQS | ≤ 0.2
AGPS | ≤ 0.2
RCID | ≤ 0.2
RSPN | ≤ 0.2

Variant | one-hybrid fitness for binding NBS DNA
EEHG | ≤ 0.2
RMSH | ≤ 0.2
PALS | ≤ 0.2
RKGG | ≤ 0.2
TAAY | ≤ 0.2
QPLT | ≤ 0.2
ANLS | ≤ 0.2
RQTC | ≤ 0.2
IKVR | ≤ 0.2
FPYR | ≤ 0.2
DCHS | ≤ 0.2
KRTL | ≤ 0.2
LQYG | ≤ 0.2
CTLE | ≤ 0.2
IDPK | ≤ 0.2
CQVF | ≤ 0.2
PMLE | ≤ 0.2
GESN | ≤ 0.2
VPHE | ≤ 0.2
WNTG | ≤ 0.2
QVPT | ≤ 0.2
DAVL | ≤ 0.2
TLMI | ≤ 0.2
IPLK | ≤ 0.2

Variant | one-hybrid fitness for binding NBS DNA
LLRC | ≤ 0.2
NRIH | ≤ 0.2
KIIS | ≤ 0.2
TAID | ≤ 0.2
QMSN | ≤ 0.2
YIPE | ≤ 0.2
QNSQ | ≤ 0.2
TPKF | ≤ 0.2
VAWF | ≤ 0.2
SMLR | ≤ 0.2
VDAN | ≤ 0.2
TLRP | ≤ 0.2
ATAC | ≤ 0.2
YRRK | ≤ 0.2
TSRH | ≤ 0.2
NAQR | ≤ 0.2
WNTN | ≤ 0.2
WTSC | ≤ 0.2
TYHR | ≤ 0.2
SKQT | ≤ 0.2
MARP | ≤ 0.2
KPRT | ≤ 0.2
IFWR | ≤ 0.2
LPNM | ≤ 0.2

Variant | one-hybrid fitness for binding NBS DNA
QVKY | 0.383
QMGI | ≤ 0.2
MKLT | ≤ 0.2
VHES | ≤ 0.2
MDVT | ≤ 0.2
VHPL | ≤ 0.2
CRNN | ≤ 0.2
QVHR | 0.436
RFFV | ≤ 0.2
PFQR | 0.295
IVMR | ≤ 0.2
PYDL | ≤ 0.2
MMSS | ≤ 0.2
KDIS | ≤ 0.2
VAVF | ≤ 0.2
ILFV | ≤ 0.2
QKSN | ≤ 0.2
TWTG | ≤ 0.2
PPQD | ≤ 0.2
SIEC | ≤ 0.2
RCPA | ≤ 0.2
MCTL | ≤ 0.2
REAM | ≤ 0.2
EISE | ≤ 0.2

Variant | one-hybrid fitness for binding NBS DNA
MYLT | ≤ 0.2
RWFA | ≤ 0.2
NKTC | ≤ 0.2
TSHV | ≤ 0.2
RAKS | 0.571
ADPI | ≤ 0.2
DIRR | ≤ 0.2
DSCK | ≤ 0.2
QYIL | ≤ 0.2
EPWS | ≤ 0.2
KYDL | ≤ 0.2
KRDV | ≤ 0.2
NYLV | ≤ 0.2
DILT | ≤ 0.2
QTHC | 0.248
HCSM | ≤ 0.2
SMRV | ≤ 0.2
TPSN | ≤ 0.2
FTLG | ≤ 0.2
LSLL | ≤ 0.2
CTRG | ≤ 0.2
RPHT | ≤ 0.2
VCLR | ≤ 0.2
RFNL | ≤ 0.2

Variant | one-hybrid fitness for binding NBS DNA
QLKT | 0.673
EFTH | ≤ 0.2
VGHV | ≤ 0.2
QHYE | ≤ 0.2
NHWV | ≤ 0.2
SLRY | ≤ 0.2
RLFW | ≤ 0.2
PWSS | ≤ 0.2
QSSA | ≤ 0.2
DPPP | ≤ 0.2
LGPS | ≤ 0.2
CRSV | ≤ 0.2
QRIH | 0.335
QRCP | 0.249
KICK | ≤ 0.2
CLEG | ≤ 0.2
PTNK | ≤ 0.2
ALPS | ≤ 0.2
NKGR | ≤ 0.2
NTRY | ≤ 0.2
LLHN | ≤ 0.2
EWNI | ≤ 0.2
ATQG | ≤ 0.2
IVMP | ≤ 0.2

Variant | one-hybrid fitness for binding NBS DNA
LQWR | ≤ 0.2
QRIF | ≤ 0.2
APAS | ≤ 0.2
KCTG | ≤ 0.2
YTSA | ≤ 0.2
ETQG | ≤ 0.2
YCTF | ≤ 0.2
ATGN | ≤ 0.2
WQES | ≤ 0.2
WMVY | ≤ 0.2
NFEG | ≤ 0.2
SITH | ≤ 0.2
CAQD | ≤ 0.2
AKYK | ≤ 0.2
NYTS | ≤ 0.2
YRAG | ≤ 0.2
YAYR | ≤ 0.2
ACVG | ≤ 0.2
